Data on 22 molecules can be found in PMC12136788.

Some of the results follow.

To fix the notation:
B1: chr20:49372985:49374992:-|CDS|ENSG00000158445|control|control|control (ssRNA)
RNA: GGGAGUUCUACAGUCCGACGAUCCAUCUACACCACAGCAAGUGCUAAGACACCCCCCCGGUCUCCUGAGAAACACACAGCAAUAGCGUUCAACUUUGAGGCGGGUGUCCACCAGUACAUUGACGCAGACACAGAUGAUGAGGGCAACAGAGGAUUGAGCAUCA
B2: chr10:121957106:121957207:-|3pUTR|ENSG00000107672|msi1|total|mutant (ssRNA)
RNA: GGGAGUUCUACAGUCCGACGAUCUGUAUCGUACAUAUUGUAUGAUUCAACAUUUUUAAAGGCAGAUUGUUUUCCGUAAAAUGCCGCUUUUGACCGUUAAUAAAUUUGUCAUGGUUGUCUUUGAUUAAAGGAAACUCACCGCCACAACAGAGGAUUGAGCAUCA
B3: chr2:226864888:226864989:+|CDS|ENSG00000144468|unk|FALSE|unique (ssRNA)
RNA: GGGAGUUCUACAGUCCGACGAUCUGCUGAUGAUUGGCAUUUGUAUUUCAAUAUGGCAUCCAUGCUCUGGAAAGGAAUAAAUCUAGAAAGAAGACUGGGAAGUAGAUGGUUUGCCUAUGUUAUCACCGCAUUUUCUGUACUUACCAACAGAGGAUUGAGCAUCA
B4: chr14:60975662:60975785:-|CDS|ENSG00000126814|unk|FALSE|unique (ssRNA)
RNA: GGGAGUUCUACAGUCCGACGAUCGAAAGAAAACCCUCUGUGCACGUUGUCAUGAACUUGCCAGCAAAAGCUAUAGAGUUUCUUAGUGCUUUCAAGUGGCUUUUAGAUGGGCAGCCAUGCAGCAGUGAGUUCCUUCCCAUAGUGCAACAGAGGAUUGAGCAUCA
B5: chr8:122973292:122973393:+|3pUTR|ENSG00000178764|msi1|FALSE|unique (ssRNA)
RNA: GGGAGUUCUACAGUCCGACGAUCAGAGAUGGUCUCUCCCCAGCCAUGGGCCACCCUUGCCAGUGACUCCAAGUGGAACUACUUAGCUCGCGUGUGCCUGGAGGGUGCGGGAAGUCCAGCGACUCUCAGACGCACCUCCCAGAGCAACAGAGGAUUGAGCAUCA
B6: ENSG00000070961:be:win_6301|3pUTR|ENSG00000070961|bound_else_gene|NA|bound_elsewhere_windowed (ssRNA)
RNA: GGGAGUUCUACAGUCCGACGAUCUGAGUUACUCCUUGUCAUCUUACAAAUAUGUGAUAUGGUAAUUUUCAUAACAGAUGUCAGUUUUGAACCAAGAAUUGGUGAUUUGUUUAUAAGAAAAAAACUGGCUUCAUUUCUGUGAAACAACAGAGGAUUGAGCAUCA
B7: chr22:49888080:49888186:+|3pUTR|ENSG00000100426|unk|FALSE|unique (ssRNA)
RNA: GGGAGUUCUACAGUCCGACGAUCUGGCUUAUUAACAGGGAAGAAGCUUGUUAUAUUCCAGUUGUAAGAAUAGCCUUAGUGUUUAGAUUUUUUUAUGAUAGGGAAGAUGCGGCCAUCACUGGGAUAUUUUCAAAUCCCAAGGACCAACAGAGGAUUGAGCAUCA
B8: chr5:14398947:14399058:+|CDS|ENSG00000038382|unk|FALSE|unique (ssRNA)
RNA: GGGAGUUCUACAGUCCGACGAUCCCCAAAAACCUUAAUUCGAAAGGGUCGAGAACGGCAUCUCUUCCUUUUUGAAAUGUCCUUAGUAUUUAGUAAAGAAGUGAAAGAUUCCAGUGGGAGAAGCAAGUACCUUUAUAAAAGCAACAACAGAGGAUUGAGCAUCA
B9: chr10:87746157:87746259:+|3pUTR|ENSG00000198682|unk|total|mutant (ssRNA)
RNA: GGGAGUUCUACAGUCCGACGAUCAACUGAAGACCAAAUCUCCGCAGGUAAAAGCAAUAUUCUUAUACAUUUCAUAAUAAAAUCCGCUCUAUGUAUUUUCUACUGCACCUGAGCAGGCAGGUCCCAGAUUUCUUAAGGCUUUGUCAACAGAGGAUUGAGCAUCA
B10: chr11:62888716:62888817:+|3pUTR|ENSG00000168003|unk|total|mutant (ssRNA)
RNA: GGGAGUUCUACAGUCCGACGAUCUUUUCUCUUUUUUAAAAACAAACAAACAAACUGUUGCAGAUUAUGAGUGAACCCCCAAACCGGGUGUUUUCUGCCUUCAAAUAAAAGUCACCCCUGCAUGGUGAAGUCUUCCCUCUGCUUCAACAGAGGAUUGAGCAUCA
B11: chr7:114979563:114979664:+|CDS|ENSG00000135272|unk|FALSE|unique (ssRNA)
RNA: GGGAGUUCUACAGUCCGACGAUCCCAACCUCAGCGCUUGCCUCAGCUUCAGACUUCAGCCCAGGUGCCAAGUGGUGAGGAAAUAGGCAAGAUAAAGAACGGCCACACAGGUCUGAGCAAUGGAAAUGGAAUUCACCACGGGGCCAACAGAGGAUUGAGCAUCA
B12: chr8:103427116:103427218:+|CDS|ENSG00000164934|unk|FALSE|bound_elsewhere (ssRNA)
RNA: GGGAGUUCUACAGUCCGACGAUCGUAUACUGGGAUUGAUCAUCACUGGAAAGAAGCUGUUUUUGCCACAUGUGGACAGCAAGUAGACAUUUGGGAUGAACAAAGAACUAAUCCUAUAUGUUCAAUGACCUGGGGAUUUGACAGCAACAGAGGAUUGAGCAUCA
B13: chr17:82057505:82058235:-|three_prime_utr|ENSG00000169718|control|control|control (ssRNA)
RNA: GGGAGUUCUACAGUCCGACGAUCUUGGGGCCAGUGGGGGCUUCUGAACAACAGGAUACAUCUAAAUGAAGGCAGCAUCUGGGUAGACAAAAGUGGGGGCUUAGGUCCCCUCCCCACCUCCCCUAGGCGCCUCCAUAGGCAAGUCAACAGAGGAUUGAGCAUCA
B14: chr21:39174768:39175664:-|three_prime_utr|ENSG00000183527|control|control|control (ssRNA)
RNA: GGGAGUUCUACAGUCCGACGAUCUUGAUGACAACAAAUGAGAUUCAGAGUAACAUUUAUACAUGAUCUUAAACAUUGUUUUGUAGUGUAUAUUACUUGUCCAUUCCUUUAAGGGGAGCAGCCUGCACUCUUUUGUAGAUUACUCAACAGAGGAUUGAGCAUCA
B15: chr12:49763637:49763739:+|3pUTR|ENSG00000139644|msi1_unk|FALSE|overlapping (ssRNA)
RNA: GGGAGUUCUACAGUCCGACGAUCAUGUGUAUCAAGGUACAGCAUCGUAGGGUUCCCCUAAACUUGCCCUGUUUUUGUUUUUUUAGUUUGUUAUCCCCUUACUGAGCGGCCUCUACUAGGUGGCUGUGAUUAAAUGUCCCAAGCCAACAGAGGAUUGAGCAUCA
B16: chr2:216674409:216674600:-|3pUTR|ENSG00000115461|msi1|total|mutant (ssRNA)
RNA: GGGAGUUCUACAGUCCGACGAUCUCAUGGCAUGACACAGCGGAGACCGCCUCCAACAACGAAUUUGGGGCUACGAAGAGGAACCGCGAAAAAGCAAAUCUGUUUCAACUGAUGGGAACCCUACCGCUACCGAACUUGGGGGCUCAACAGAGGAUUGAGCAUCA
B17: ENSG00000088387:stop:overlap|stop_codon|ENSG00000088387|stop_codon|NA|stop_codon (ssRNA)
RNA: GGGAGUUCUACAGUCCGACGAUCACGCUCCAUGCUCUUGUGGGCUUCUCUCCACCAUCACUCUGAAAGUGUCUUGGAGCCAAUAGUUGGUGAACGUGUCACACUUGUGUGGUAGGACCUUGAAGUCUAAGUUGCUUUCCUGAGCAACAGAGGAUUGAGCAUCA
B18: chr1:68475836:68475940:-|3pUTR|ENSG00000024526|unk|FALSE|unique (ssRNA)
RNA: GGGAGUUCUACAGUCCGACGAUCAUGCCCAGGGCCUAACUUACACUAAUUAAAUCUGAAUUUUGGGGAUGUUGUAUAGGGAUUAGUAUUUUUUUUAAUCUAGGUGAUUCCAAUAUUCAGCCAACUGUGAGAAUCAAUGGCCUACAACAGAGGAUUGAGCAUCA
B19: chr10:99879964:99880065:-|CDS|ENSG00000107554|unk|FALSE|bound_elsewhere (ssRNA)
RNA: GGGAGUUCUACAGUCCGACGAUCCAGAUGCCCUUCAGACCCAGACUCCACCUCCCAGCCAAGGUCAGGGGACUCUGCAGAUGUAGCUAGAGAUGUAAAGCAACCCACUGCCACGCCGAGGAGCUACCGGAACUUCAGGCAUCCCAACAGAGGAUUGAGCAUCA
B20: chr1:228494639:228494729:+|3pUTR|ENSG00000168159|msi1_unk|total|mutant (ssRNA)
RNA: GGGAGUUCUACAGUCCGACGAUCGCCAUCGUGUCUCAUCUUGCUGUUAUCUCCCGCUCUUUCCCUCCUCCCAUUUCCUUCCGCCGUUGAAUUUUGCAAAGCUUGCCGCAGCCGCUCAGUUGCCUGCAGCAUCCUUGUGUGCCGCAACAGAGGAUUGAGCAUCA
B21: chr15:49644301:49644402:+|3pUTR|ENSG00000104047|msi1|FALSE|unique (ssRNA)
RNA: GGGAGUUCUACAGUCCGACGAUCAAUAAUUGAAGCCUACCUGCUAGUGGCCAUCUCUGCUGCCAGGUGAAAAGAGCCUGACUUAGAAUGAAGUCAGCGAAGGAAAGCAGAGUGGAGAGAAAAAGAGAGACUGAGUCCUGAUGACAACAGAGGAUUGAGCAUCA
B22: chr11:35726083:35726184:+|CDS|ENSG00000166326|msi1|FALSE|bound_elsewhere (ssRNA)
RNA: GGGAGUUCUACAGUCCGACGAUCGAGGCAAUGGCCACAGCUCAUGUGACUGAGAUACUGGCAGACAUCCAAUCCCACAUGGAUAGGUUGAUGACUCAGAUGGCCCAAGCCAAGGAACAACUUGAUACCUCUAAUGAAUCAGCUCAACAGAGGAUUGAGCAUCA

This experiment addresses MSI1 full-length (mouse, UniProt Q61474 1-362). The experiment in a line: nsRBNS (natural sequence RNA bind-n-seq); RBNS binding buffer (assumed for nsRBNS): 25 mM Tris pH 7.5, 150 mM KCl, 3 mM MgCl2, 0.01% Triton X-100, 500 ug/ml BSA, 20 U/ml SUPERase-In, 4 C; UNK is unkempt and MSI1 is Musashi-1; names of the RNAs are library labels; protein concentration not given here; high values mean tight binding.
Chain of UniProt Q61474 (Q61474 whole entry): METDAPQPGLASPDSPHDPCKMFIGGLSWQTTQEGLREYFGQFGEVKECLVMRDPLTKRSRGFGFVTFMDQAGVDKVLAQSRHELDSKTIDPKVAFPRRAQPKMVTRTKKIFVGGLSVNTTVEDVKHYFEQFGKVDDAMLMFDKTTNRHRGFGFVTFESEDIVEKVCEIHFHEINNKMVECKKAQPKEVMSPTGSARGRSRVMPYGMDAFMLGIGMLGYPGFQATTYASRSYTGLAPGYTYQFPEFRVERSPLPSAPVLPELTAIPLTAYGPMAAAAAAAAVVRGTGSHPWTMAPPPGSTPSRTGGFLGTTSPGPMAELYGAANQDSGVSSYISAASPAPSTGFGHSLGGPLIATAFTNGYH
The molecule B1 registered a binding signal of 0.624 enrichment R.

In turn, B2 returned a binding signal of 0.237 enrichment R.

On to B3, for which the binding signal came to 0.265 enrichment R.

B4 yielded a binding signal of 1.21 enrichment R.

Molecule B5 displayed a binding signal of 0.488 enrichment R.

The molecule B6 gave a binding signal of 0.327 enrichment R.

For the molecule B7, the binding signal amounted to 11.3 enrichment R.

For B8, the binding signal was 4.87 enrichment R.

Regarding B9, the binding signal was found to be 3.07 enrichment R.

In turn, B10 showed a binding signal of 0.484 enrichment R.

Consider B11, for which the binding signal was 0.46 enrichment R.

B12 yielded a binding signal of 0.408 enrichment R.

As for B13, the binding signal was 0.491 enrichment R.

For the molecule B14, the binding signal was determined as 0.966 enrichment R.

In turn, B15 yielded a binding signal of 1.57 enrichment R.

On to B16, for which the binding signal worked out at 0.427 enrichment R.

With B17, the binding signal came to 0.444 enrichment R.

B18: the binding signal was found to be 14.2 enrichment R.

Molecule B19 showed a binding signal of 1.22 enrichment R.

The molecule B20 returned a binding signal of 0.702 enrichment R.

Take B21: the binding signal was 0.561 enrichment R.

Consider B22, for which the binding signal is 0.329 enrichment R.
